# Assay results from article PMC4336329 (PLoS ONE, 2015).
# Among all 310,000 compounds or so, about 2,200 (0.71%) showed an effect of 50% or more. Effects have a minus sign here. Some of the results follow.
# Molecular target: human ether-à-go-go-related gene (hERG) potassium channel (human, UniProt Q12809)
# Assay: primary screen, population patch clamp on CHO cells stably expressing hERG
# Chain of human ether-à-go-go-related gene (hERG) potassium channel (Q12809 whole entry, looked up): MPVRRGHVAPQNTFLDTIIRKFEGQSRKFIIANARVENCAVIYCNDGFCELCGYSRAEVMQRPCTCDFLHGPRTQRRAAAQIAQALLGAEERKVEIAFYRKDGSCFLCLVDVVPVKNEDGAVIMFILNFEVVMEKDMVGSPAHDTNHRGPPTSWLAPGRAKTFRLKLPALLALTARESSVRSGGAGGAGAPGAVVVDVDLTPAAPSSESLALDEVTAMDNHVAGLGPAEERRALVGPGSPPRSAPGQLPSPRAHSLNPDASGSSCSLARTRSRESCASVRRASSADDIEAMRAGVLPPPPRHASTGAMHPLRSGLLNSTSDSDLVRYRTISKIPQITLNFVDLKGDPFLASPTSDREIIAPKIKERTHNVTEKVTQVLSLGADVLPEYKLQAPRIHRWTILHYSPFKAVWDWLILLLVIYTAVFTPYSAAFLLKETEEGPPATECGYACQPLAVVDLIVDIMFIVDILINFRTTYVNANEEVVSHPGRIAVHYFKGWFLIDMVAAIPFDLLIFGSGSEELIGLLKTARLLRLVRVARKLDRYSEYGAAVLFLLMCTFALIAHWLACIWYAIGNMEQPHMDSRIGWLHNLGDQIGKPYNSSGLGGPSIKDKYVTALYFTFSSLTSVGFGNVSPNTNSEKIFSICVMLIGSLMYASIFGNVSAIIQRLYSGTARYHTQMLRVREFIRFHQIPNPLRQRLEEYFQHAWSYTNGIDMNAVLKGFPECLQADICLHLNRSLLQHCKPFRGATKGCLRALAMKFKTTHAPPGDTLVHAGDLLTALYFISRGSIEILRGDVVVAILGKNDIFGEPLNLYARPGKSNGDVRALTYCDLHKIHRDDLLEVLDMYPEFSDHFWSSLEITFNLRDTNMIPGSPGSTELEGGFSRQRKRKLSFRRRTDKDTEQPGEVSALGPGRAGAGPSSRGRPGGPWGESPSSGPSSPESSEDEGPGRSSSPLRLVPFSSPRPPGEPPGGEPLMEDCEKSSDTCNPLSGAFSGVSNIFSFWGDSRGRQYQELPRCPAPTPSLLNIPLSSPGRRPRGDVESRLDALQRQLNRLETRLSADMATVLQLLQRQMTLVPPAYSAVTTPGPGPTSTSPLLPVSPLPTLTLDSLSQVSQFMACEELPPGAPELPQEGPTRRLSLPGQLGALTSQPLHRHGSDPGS
row,Structure (SMILES),"hERG current change (%, negative = inhibition) at 1uM [%]"
1,O=C(c1cc([N+](=O)[O-])ccc1N1CCCC1)N1CCCCC1,12.9
2,Nc1ccccc1C#CC(=O)c1ccccc1,15
3,Cc1ccc(NC(=S)NNS(=O)(=O)c2ccc3ccccc3c2)cc1Cl,7.2
4,CCCCC1C(C#N)=C(C)NC2=C1C(=O)CC(C)(C)C2 (stereo not drawn),0.564
5,O=C(/C=C/c1cccs1)NCc1ccccc1,9.97
6,CC(=O)Nc1ccc(N/C(N)=N/c2nc(C)cc(C)n2)cc1,8.5
7,CCC(C)n1c(SCC(=O)NC2CCS(=O)(=O)C2)nc2ccccc2c1=O (stereo not drawn),-7.93
8,C=CCSc1nncn1/N=C/c1ccc(OC)cc1,-5.99
9,COc1ccc(-c2nc(-c3ccccc3)c(-c3cccs3)[nH]2)cc1OC,16.6
10,Cc1c(CC(=O)N2C[C@H]3C[C@@H](C2)c2cccc(=O)n2C3)c(=O)oc2c(C)c(O)ccc12,3.54
11,Cc1ccc2nc(NC(=O)c3ccc(OCC4CCCO4)cc3)sc2c1 (stereo not drawn),10.5
12,CNC(=O)c1ccccc1S(=O)c1ccccc1COC(C)=O (stereo not drawn),6.74
13,COc1ccc(OC(=O)N2CCOCC2)cc1,7.5
14,COc1ccc(NC(=O)c2noc3c2CCCCC3)cc1,7.21
15,CC(=O)c1cccc(NC(=O)CSc2nc(C3CC3)nc3ccccc23)c1,9.33
16,COc1ccc(Nc2nc(N)c(C(=O)c3ccc(F)cc3)s2)cc1,22.2
17,c1ccc(C2CCC(N3CCN(c4ccccc4)CC3)CC2)cc1 (stereo not drawn),0.918
18,O=C(NC1CCOCC1)C1CCC(=O)N(Cc2ccc(Cl)cc2)C1 (stereo not drawn),18.1
19,CCN(CC)CCNc1ccc(Cl)cc1[N+](=O)[O-].Cl,-41.1
20,Cc1ccc(S(=O)(=O)NN2C(=O)/C(=C/c3ccccn3)SC2=S)cc1,3.98
21,O=C(Nc1ccccc1F)c1cc(S(=O)(=O)N2CCOCC2)cs1,12.4
22,Nc1ccc2oc(-c3ccccc3Cl)cc(=O)c2c1O,6.61
23,COc1ccc(-n2nnnc2CNC(=O)C(=O)c2c[nH]c3ccccc23)cc1,18.7
24,COC(=O)c1ccccc1S(=O)(=O)N1CCC(C(=O)OC(C)C(=O)Nc2ccc(NC(C)=O)cc2)CC1 (stereo not drawn),0.0636
25,CCOC(=O)[C@H]1[C@H]2COc3ccc(OC)cc3[C@@H]2N2C(=O)CN(C)C(=O)[C@@]12C,10.1
26,CN1C(=O)N(C)C(=O)C2(Cc3c(ccc4ccccc34)N(C)C2)C1=O,12.3
27,C/C(=N\N1CCN(Cc2ccc(C)cc2)CC1)c1ccco1,-44.7

row,Structure (SMILES),"hERG current change (%, negative = inhibition) at 1uM [%]"
1,CCCn1nc2cc(C(=O)NCC34CC5CC(CC(C5)C3)C4)ccc2c1OCC,12.7
2,O=C(c1ccncc1)N1CCN(C(=O)c2cccc3ccccc23)CC1,12
3,O=C(/C=C/c1ccc(OC(F)F)cc1)Nc1cccc(S(=O)(=O)N2CCOCC2)c1,5.77
4,COCCn1c(NC(=S)NC(=O)C2CC2)cc(=O)[nH]c1=O,13.7
5,Clc1ccccc1Nc1nnc(-c2ccncc2)s1,4.73
6,CCCCNC(=O)C(c1ccc(OCC(=O)OC)c(C(=O)OC)c1)N(CCOC)C(=O)CCCCCN1C(=O)NC(c2ccc(-c3ccccc3)cc2)C(C(=O)OCc2ccccc2)=C1C (stereo not drawn),12.6
7,CC(=O)N1CCN(c2ccccc2NC(=O)COc2ccc(Br)cc2)CC1,8.81
8,COc1ccc(/C=N\NS(=O)(=O)c2ccc(C)cc2)cc1COc1ccccc1[N+](=O)[O-],-1.33
9,Cc1ccc(CNC(=O)c2cn(C)c3ccc(S(=O)(=O)N4CCOCC4)cc3c2=O)cc1,10.9
10,O=C(Nc1cc(C(F)(F)F)ccc1N1CCOCC1)c1ccco1,11.1
11,COc1ccc(Cl)cc1NC(=O)COc1ccc2c(c1)OCO2,15.9
12,Cc1c(Cl)cccc1NC(=O)COC(=O)Cc1ccsc1,5.97
13,C[C@]12CCC(=O)C=C1C=C[C@@H]1[C@@H]2CC[C@@]2(C)[C@H]1CC[C@@]21CCC(=O)O1,2.93
14,CCN(CC)S(=O)(=O)c1ccc(N2CCOCC2)c(NS(=O)(=O)c2ccc(C)c(C)c2)c1,8.34
15,COc1ccc(NC(=S)NC(NC(=O)c2cccc(C)c2)C(Cl)(Cl)Cl)c([N+](=O)[O-])c1 (stereo not drawn),9.22
16,CCCC[n+]1ccn(-c2nc3ccccc3nc2[N-]S(=O)(=O)c2ccc(Br)cc2)c1,4.61
17,CC1(C)C(=O)N(c2ccccc2Cl)C(=O)c2ccccc21,17.4
18,NNC(=O)C1CC1(c1ccccc1)c1ccccc1 (stereo not drawn),9.99
19,CC1=NN(c2ccc(C(=O)O)cc2)C(=O)/C1=C/c1ccc(-c2ccccc2F)o1,15.2
20,Cc1ccc(SCc2nnc(NC(=O)c3ccccc3)s2)cc1,0.501
21,CC(=O)Nc1ccc(NS(=O)(=O)Cc2ccccc2)cc1,12.7
22,COc1ccc(OC)c(N(/C(N)=N/c2nc(C)cc(C)n2)S(=O)(=O)c2ccc(NC(C)=O)cc2)c1,6.4
23,COc1ccc(NC(=O)CNC(=O)C23CC4CC(CC(C4)C2)C3)c(OC)c1,-1.59
24,O=C(NCc1cccs1)C(=O)NCC(c1ccco1)N1CCN(c2ccccc2)CC1 (stereo not drawn),14.2
25,O=C(Nc1cc([N+](=O)[O-])ccc1O)c1cccc(C(=O)Nc2cc([N+](=O)[O-])ccc2O)c1,18.4
26,COc1ccc(S(=O)(=O)N2CCC(C(=O)NCC3CCCO3)CC2)cc1 (stereo not drawn),-3.75
27,COc1ccc(OC)c(/C=C/C(=O)OCC(=O)NCc2ccco2)c1,5.73
